The text below walks through data of publication PMC4336329 (PLoS ONE, 2015).

Among all 310,000 compounds or so, about 14,000 (4.5%) showed an effect of 50% or more. Effects have a minus sign here. Some of the results follow.
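Also: peak tail current of the secondary pulse compared with the same well before compound.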

The target in the assay is human ether-à-go-go-related gene (hERG) potassium channel (human, UniProt Q12809). Kind of assay: primary screen, population patch clamp on CHO cells stably expressing hERG.
Sequence of human ether-à-go-go-related gene (hERG) potassium channel (Q12809 whole entry, looked up): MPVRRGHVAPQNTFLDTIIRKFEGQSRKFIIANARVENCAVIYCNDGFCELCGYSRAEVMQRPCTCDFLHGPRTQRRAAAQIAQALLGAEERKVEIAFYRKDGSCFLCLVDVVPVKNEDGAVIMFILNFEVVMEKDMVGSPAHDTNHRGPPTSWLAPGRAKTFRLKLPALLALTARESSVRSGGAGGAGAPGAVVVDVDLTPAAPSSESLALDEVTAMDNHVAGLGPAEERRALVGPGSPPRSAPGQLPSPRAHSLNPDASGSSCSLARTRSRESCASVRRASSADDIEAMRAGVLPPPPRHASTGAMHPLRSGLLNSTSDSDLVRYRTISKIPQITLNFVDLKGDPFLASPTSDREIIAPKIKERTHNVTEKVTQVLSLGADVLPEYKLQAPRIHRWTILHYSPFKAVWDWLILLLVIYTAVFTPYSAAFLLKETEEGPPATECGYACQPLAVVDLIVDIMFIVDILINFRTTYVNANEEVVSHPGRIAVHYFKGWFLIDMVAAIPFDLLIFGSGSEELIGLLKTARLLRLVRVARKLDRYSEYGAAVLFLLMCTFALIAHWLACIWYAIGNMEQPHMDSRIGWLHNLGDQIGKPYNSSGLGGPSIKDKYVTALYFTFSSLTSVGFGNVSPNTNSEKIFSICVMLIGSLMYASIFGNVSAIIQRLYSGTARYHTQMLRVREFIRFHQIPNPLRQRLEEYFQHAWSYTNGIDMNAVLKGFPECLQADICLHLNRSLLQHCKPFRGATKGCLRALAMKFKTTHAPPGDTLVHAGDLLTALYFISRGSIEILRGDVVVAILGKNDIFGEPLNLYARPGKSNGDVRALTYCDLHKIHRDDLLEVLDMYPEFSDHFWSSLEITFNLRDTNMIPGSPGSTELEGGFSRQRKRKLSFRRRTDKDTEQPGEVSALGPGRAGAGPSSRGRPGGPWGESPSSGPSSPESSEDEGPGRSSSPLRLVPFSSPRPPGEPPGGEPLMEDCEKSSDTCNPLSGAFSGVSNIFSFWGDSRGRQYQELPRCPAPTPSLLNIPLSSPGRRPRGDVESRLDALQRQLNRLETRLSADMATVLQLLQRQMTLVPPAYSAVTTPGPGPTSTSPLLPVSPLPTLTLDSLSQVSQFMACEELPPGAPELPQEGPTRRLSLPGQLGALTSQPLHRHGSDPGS
Take `CCOC(=O)C1CCCN(c2cc(=O)n(C3CCCCC3)c(=O)[nH]2)C1` (stereo not drawn): the “hERG current change (%, negative = inhibition) at 10uM” value is reported as -1.79%.
With `COCCn1c(SCC(=O)N(C)C2CCS(=O)(=O)C2)nc2ccccc2c1=O` (stereo not drawn) the figure was -12.1%; with `O=C(CP(=O)(c1ccccc1)c1ccccc1)N/N=C/c1cc(Br)cc(Br)c1O`, 11.9%; with `CC(=O)Nc1ccc(/C=N/NC(=O)c2cc3ccccc3nc2C)cc1`, 7.23%.
In the case of `O=C(CN1C(=O)C2CC=CCC2C1=O)Nc1ccccc1N1CCCC1` (stereo not drawn), the “hERG current change (%, negative = inhibition) at 10uM” value is recorded as 6.41%.
With `COc1ccc(C(=O)O)cc1S(=O)(=O)Nc1cccc(C)c1`, the “hERG current change (%, negative = inhibition) at 10uM” value is on record as -18.9%.
In the case of `CCc1cc(C(=O)NNC(=O)CCl)sc1C`, the “hERG current change (%, negative = inhibition) at 10uM” value was determined as 1.58%.
As for `COCCNC(=O)C(c1ccc(F)cc1)N(C(=O)CCC(=O)Nc1ccccn1)c1ccc(C)cc1` (stereo not drawn), the “hERG current change (%, negative = inhibition) at 10uM” value is given as 4.24%.
With `COCCn1c(=S)[nH]c2sc3c(c2c1=O)CCCC3`, the “hERG current change (%, negative = inhibition) at 10uM” value was 27.6%.
Take `COc1cccc(NC(=O)COC(=O)c2ccc(S(=O)(=O)NCc3ccco3)cc2)c1`: the “hERG current change (%, negative = inhibition) at 10uM” value is given as -8.16%.
With `CCCCc1nc2cc(C(=O)N3CCCCC3COC)ccc2o1` (stereo not drawn) the figure was -12.8%.
`CC(C)c1ccc(N=C2NN=C(c3cccs3)CS2)cc1`: the “hERG current change (%, negative = inhibition) at 10uM” value stood at 5.69%.
With `COc1ccc(-c2cc(C(F)(F)F)nc(SCCC(=O)NCc3ccco3)n2)cc1` the figure was 12.2%.
As for `CC1CC(C)CN(C(=O)C2CCN(C(=O)Nc3ccccc3)CC2)C1` (stereo not drawn), the “hERG current change (%, negative = inhibition) at 10uM” value is 8.68%.
With `N#CC1=C(N)OC2=C(C(=O)CCC2)C12CCC1(CC2)OCCO1` the figure was 10.1%; with `CCCc1cc(C(=O)NCc2ccco2)no1`, 9.57%; with `CCOC(=O)c1ccc(CNCc2ccc(C)cc2)cc1`, -40.2%.
As for `CC(C)(C)NC(=O)NC(=O)CSc1ncccn1`, the “hERG current change (%, negative = inhibition) at 10uM” value is on record as 22.7%.
Turning to `O=c1ccc2cc(S(=O)(=O)N3CCN(c4ccccc4F)CC3)ccc2o1`, the “hERG current change (%, negative = inhibition) at 10uM” value is on record as -0.156%.
For `Cn1c(SCC(=O)N2CCCCC2)nc2c(c1=O)SCC2`, the “hERG current change (%, negative = inhibition) at 10uM” value is on record as 12.5%.
As to `COc1ccc(OCCSc2n[nH]c(N)n2)cc1`, the “hERG current change (%, negative = inhibition) at 10uM” value was -5.26%.
`CCc1ccc(OCc2nnc(SCC(=O)N3CCN(c4ccccc4)CC3)o2)cc1`: the “hERG current change (%, negative = inhibition) at 10uM” value is on record as 4.13%.
On to `O=S(=O)(NCCSCc1ccc(Cl)c(Cl)c1)c1ccc2c(c1)OCCO2`, for which the “hERG current change (%, negative = inhibition) at 10uM” value amounted to 2.77%.
For `Cc1ccc(C)c(NC(=O)CS(=O)(=O)c2c[nH]c3ccccc23)c1`, the “hERG current change (%, negative = inhibition) at 10uM” value is -2.33%.
`CCc1ccc(-n2c(SCC(=O)NC3CCS(=O)(=O)C3)nc3ccccc3c2=O)cc1` (stereo not drawn): the “hERG current change (%, negative = inhibition) at 10uM” value is given as -30%.
For the molecule `O=C(COc1ccc(Br)cc1Cl)NNC(=O)c1ccccc1`, the “hERG current change (%, negative = inhibition) at 10uM” value was found to be 2.57%.
With `CCCN(CC1CC1)S(=O)(=O)c1ccc(-n2cnnn2)c(OC)c1` the figure was -21.9%; with `Cc1ccc(OCCCC(=O)Nc2ccccc2C(F)(F)F)cc1`, 4.29%; with `CN(Cc1ccccc1)c1nc2c(c(=O)[nH]c(=O)n2C)n1Cc1ccccc1F`, 15.7%.
As to `Cn1c(=NC(=O)CSCC(=O)N2CCOCC2)sc2ccccc21`, the “hERG current change (%, negative = inhibition) at 10uM” value is given as 11%.
On to `O=C(Nc1nc2ccccc2[nH]1)c1cccc(F)c1`, for which the “hERG current change (%, negative = inhibition) at 10uM” value is listed as 14.3%.
Regarding `O=C(Cn1nnc2ccccc21)N/N=C/c1ccco1`, the “hERG current change (%, negative = inhibition) at 10uM” value is given as -1.91%.
With `O=C1/C(=C/c2cccc(F)c2)SC(=S)N1NS(=O)(=O)c1ccccc1` the figure was -41.7%; with `COc1ccc(NS(=O)(=O)CC23CCC(CC2=O)C3(C)C)cc1` (stereo not drawn), -1.3%; with `Cc1cccc(OCCN2CCOCC2)c1C`, 7.66%.
For the molecule `Cc1ccc(N2CC(C(=O)O)CC2=O)cc1` (stereo not drawn), the “hERG current change (%, negative = inhibition) at 10uM” value is recorded as 5.08%.
Turning to `Cc1cc2oc(=O)cc(C)c2c(=O)o1`, the “hERG current change (%, negative = inhibition) at 10uM” value was -65.8%.
As to `O=c1c2c3c(sc2nc2n1N=C(c1cccs1)CS2)CCCC3`, the “hERG current change (%, negative = inhibition) at 10uM” value is on record as 5.12%.
`COCCn1nnnc1C(C(C)C)N(Cc1cccnc1)Cc1cc2cc(OC)ccc2[nH]c1=O` (stereo not drawn): the “hERG current change (%, negative = inhibition) at 10uM” value is listed as -29.3%.
On to `O=C(CCN1C(=O)/C(=C/c2ccccc2F)SC1=S)NCCCn1ccnc1`, for which the “hERG current change (%, negative = inhibition) at 10uM” value is reported as -38.1%.
On to `CN1CCN(C(=O)/C=C/c2ccc(Cl)c(Cl)c2)CC1`, for which the “hERG current change (%, negative = inhibition) at 10uM” value is -23%.
Consider `O=S(=O)(NCc1ccccc1)c1ccc(Cl)c(S(=O)(=O)NCc2ccccc2)c1`, for which the “hERG current change (%, negative = inhibition) at 10uM” value is -33%.
Take `CCOC(=O)c1sc(=NC(=O)/C=C/c2ccccc2)n(C)c1C`: the “hERG current change (%, negative = inhibition) at 10uM” value was determined as 6.02%.
As for `COc1ccc(-n2nc(C(=O)N3CCN(Cc4ccc5c(c4)OCO5)CC3)c3ccccc3c2=O)cc1`, the “hERG current change (%, negative = inhibition) at 10uM” value is recorded as -4.87%.
For `O=C(Cn1ncc2c([nH]c3ccccc32)c1=O)NCCc1ccc(Cl)cc1`, the “hERG current change (%, negative = inhibition) at 10uM” value worked out at 15.3%.
